# Results: the BET-seq Pho4 binding data (Le et al. 2018)
# The other results are listed elsewhere or left out. These are noisy estimates, calculated here from bound and input reads.
# Target: T1, Pho4 (S. cerevisiae) (UniProt P07270)
# T1 sequence: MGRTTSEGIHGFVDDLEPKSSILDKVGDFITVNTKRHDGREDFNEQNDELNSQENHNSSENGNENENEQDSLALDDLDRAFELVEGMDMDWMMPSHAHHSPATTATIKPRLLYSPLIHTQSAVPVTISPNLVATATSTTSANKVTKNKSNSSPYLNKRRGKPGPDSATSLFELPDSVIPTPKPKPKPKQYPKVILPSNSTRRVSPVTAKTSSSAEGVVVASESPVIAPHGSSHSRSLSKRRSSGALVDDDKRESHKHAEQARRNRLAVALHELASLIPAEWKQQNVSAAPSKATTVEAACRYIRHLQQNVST
# Assay: relative binding free energy (BET-seq); higher = weaker binding
# Settings: reference: library average
row,Sequence,relative binding free energy
1,TGGTCCACGTGGGAAT,-0.07 kcal/mol
2,TGTTGCACGTGTCATG,0.05 kcal/mol
3,CGGTGCACGTGTTGAA,0 kcal/mol
4,TGAGCCACGTGGAGGT,-0.06 kcal/mol
5,GCTTTCACGTGGGGCT,0.29 kcal/mol
6,GGGGTCACGTGGGGGA,0 kcal/mol
7,ATGTTCACGTGCAGTT,-0.04 kcal/mol
8,GATGTCACGTGACTTG,0.36 kcal/mol
9,GAGAACACGTGTGTGT,0.1 kcal/mol
10,ATCTGCACGTGTGGGT,-0.03 kcal/mol
11,TAGGGCACGTGGGATT,-0.15 kcal/mol
12,TGTGACACGTGTATGG,-0.02 kcal/mol
13,AGCGGCACGTGTGGTC,-0.11 kcal/mol
14,ATGGTCACGTGATAGG,0.23 kcal/mol
15,CCGGTCACGTGAGTGG,0.3 kcal/mol
16,TATTGCACGTGGCTCG,0.02 kcal/mol
17,ACCGGCACGTGGGTTT,-0.14 kcal/mol
18,CATAGCACGTGATTTG,0.17 kcal/mol
19,GATATCACGTGGTAGG,0.2 kcal/mol
20,CTGTACACGTGTGAGA,0.16 kcal/mol
21,AGCATCACGTGGGTTG,0.05 kcal/mol
22,TCGGTCACGTGGTTTA,0.2 kcal/mol
23,GCGTTCACGTGGCGGT,0.27 kcal/mol
24,CGGGCCACGTGGGGGA,-0.17 kcal/mol
25,TTCGTCACGTGATCTT,0.18 kcal/mol
26,GTTATCACGTGGGAAG,0.01 kcal/mol

row,Sequence,relative binding free energy
1,GGTTTCACGTGCTGGT,0.3 kcal/mol
2,AGTAACACGTGTTGGT,-0.01 kcal/mol
3,AATGTCACGTGGGCGT,-0.15 kcal/mol
4,CGTCGCACGTGGGGGA,-0.13 kcal/mol
5,CGGGTCACGTGCTTTT,0.01 kcal/mol
6,GATAGCACGTGCGTTT,-0.03 kcal/mol
7,TTATGCACGTGAGTTA,0.03 kcal/mol
8,CAATACACGTGTGGGT,-0.01 kcal/mol
9,TTATGCACGTGACATT,0.04 kcal/mol
10,AGGTTCACGTGTATCT,0.21 kcal/mol
11,GGTCACACGTGGGCGG,0.05 kcal/mol
12,AAGGTCACGTGTCGTG,0.13 kcal/mol
13,CGTTTCACGTGGTTCT,0.17 kcal/mol
14,TGGGACACGTGAGGGG,0.33 kcal/mol
15,TCGATCACGTGTGGAT,0.15 kcal/mol
16,GCGGGCACGTGAAGGC,0.3 kcal/mol
17,TGCTCCACGTGGCGGG,-0.08 kcal/mol
18,AGTGGCACGTGAGTTG,0.12 kcal/mol
19,GGGATCACGTGCAGGT,0.14 kcal/mol
20,CATTACACGTGTGAGT,0.26 kcal/mol
21,ATGGCCACGTGGGATA,-0.14 kcal/mol
22,AGAAGCACGTGGGTGT,-0.13 kcal/mol
23,TGCTGCACGTGATAGT,0.1 kcal/mol
24,TGGACCACGTGGTTGT,-0.11 kcal/mol
25,TAGTGCACGTGGTGGC,-0.08 kcal/mol
26,GATCTCACGTGATTGG,0.4 kcal/mol

row,Sequence,relative binding free energy
1,TTAGGCACGTGGGTGC,-0.24 kcal/mol
2,TGGCCCACGTGAGGGT,0.17 kcal/mol
3,GTTTTCACGTGATGCA,0.41 kcal/mol
4,GCGTGCACGTGTGATT,0.07 kcal/mol
5,TTGATCACGTGTTGAT,0.2 kcal/mol
6,GAGGGCACGTGGGCAT,-0.23 kcal/mol
7,GGACGCACGTGGTGTT,-0.17 kcal/mol
8,AGTGACACGTGCTGTT,-0.12 kcal/mol
9,TATGGCACGTGCTGTT,-0.18 kcal/mol
10,GTAGTCACGTGGGCGA,-0.12 kcal/mol
11,GCGTGCACGTGAGTCT,0.31 kcal/mol
12,TATTTCACGTGGGCGA,0.03 kcal/mol
13,ATTGACACGTGTTTTA,-0.01 kcal/mol
14,GGATTCACGTGATATT,0.29 kcal/mol
15,GTAGACACGTGGTATA,-0.09 kcal/mol
16,GGTGGCACGTGTCGTC,0 kcal/mol
17,GTTTGCACGTGAGACT,0.14 kcal/mol
18,TGAGCCACGTGCCGGG,-0.07 kcal/mol
19,TTGTGCACGTGGGAAG,-0.18 kcal/mol
20,ACTGTCACGTGGGTCT,0.01 kcal/mol
21,TAGGTCACGTGGATGC,0.11 kcal/mol
22,TAGGGCACGTGAGTGA,0.24 kcal/mol
23,CAGAGCACGTGAAGGT,0.31 kcal/mol
24,CTAAGCACGTGGAGTT,0 kcal/mol
25,AATGACACGTGTAGGA,0.02 kcal/mol
26,GTTGTCACGTGGCAGT,0.11 kcal/mol

row,Sequence,relative binding free energy
1,GGTTACACGTGCGCTG,0.09 kcal/mol
2,GTGTCCACGTGAATGG,0.29 kcal/mol
3,GGGGACACGTGGGCGC,-0.13 kcal/mol
4,TATTTCACGTGCAGTA,0.2 kcal/mol
5,ATGTCCACGTGTATGT,-0.02 kcal/mol
6,GGAGACACGTGTGTCG,-0.01 kcal/mol
7,CGTGGCACGTGTCTGT,-0.09 kcal/mol
8,GTTAGCACGTGAGATA,0.4 kcal/mol
9,GGTGGCACGTGTCTGC,0.03 kcal/mol
10,ATTGCCACGTGGGGGT,-0.33 kcal/mol
11,GGCCTCACGTGGCGGG,0.15 kcal/mol
12,AATTTCACGTGGCTGT,0.12 kcal/mol
13,ATGGGCACGTGATCGG,-0.04 kcal/mol
14,AGTTACACGTGTGAAA,0.35 kcal/mol
15,CTTTTCACGTGTGGGG,0.26 kcal/mol
16,TTTGACACGTGGTTCG,0.05 kcal/mol
17,AGTGGCACGTGGATCA,0.04 kcal/mol
18,TGTGACACGTGGGAGT,-0.04 kcal/mol
19,CAGTGCACGTGCGTGT,-0.2 kcal/mol
20,GGTGTCACGTGAGGAC,0.31 kcal/mol
21,GTAGGCACGTGTAAGG,0.07 kcal/mol
22,GGGGTCACGTGAAGGA,0.39 kcal/mol
23,GGAAACACGTGTCGGT,0.22 kcal/mol
24,ATTTACACGTGGGTCG,-0.17 kcal/mol
25,ACGTGCACGTGTAGTA,-0.15 kcal/mol
26,GCGTCCACGTGGGTTG,-0.16 kcal/mol

row,Sequence,relative binding free energy
1,AAAGACACGTGTGGTG,0.05 kcal/mol
2,TTTTACACGTGGGCAT,-0.01 kcal/mol
3,TTGAACACGTGTAGTG,0.15 kcal/mol
4,ATTAACACGTGGGTTT,0.01 kcal/mol
5,AAAATCACGTGTTTGG,0.16 kcal/mol
6,GGGAGCACGTGGTCAG,-0.27 kcal/mol
7,CGTGACACGTGGGTTG,-0.16 kcal/mol
8,GAGGACACGTGTGTGG,0.14 kcal/mol
9,GGAGTCACGTGTTTGC,0.04 kcal/mol
10,AACAGCACGTGTGGGT,-0.04 kcal/mol
11,AGGTACACGTGGTTCA,0.04 kcal/mol
12,TAAAGCACGTGATTGG,0.09 kcal/mol
13,TTTCTCACGTGACTGG,0.23 kcal/mol
14,CTCGTCACGTGTTGTG,0.21 kcal/mol
15,CGGATCACGTGAGGTT,0.49 kcal/mol
16,TGTTGCACGTGTGCTG,0.07 kcal/mol
17,GTATGCACGTGTAGTT,0.21 kcal/mol
18,GCATTCACGTGATTTG,0.45 kcal/mol
19,GTTTACACGTGCATTG,0.3 kcal/mol
20,GGAGTCACGTGGGTCG,-0.08 kcal/mol
21,AATTGCACGTGGCGGA,0 kcal/mol
22,TATTACACGTGGTTCG,0.12 kcal/mol
23,TGAAGCACGTGGGGAA,-0.21 kcal/mol
24,GTAAACACGTGTGATG,0.11 kcal/mol
25,ATGAACACGTGAGGGG,0.33 kcal/mol
26,TGACTCACGTGTGTGC,0.22 kcal/mol

row,Sequence,relative binding free energy
1,GCGAACACGTGTAGGG,0.03 kcal/mol
2,TTTGCCACGTGTGAGT,0.07 kcal/mol
3,TTTAGCACGTGGAGCG,0 kcal/mol
4,AATTGCACGTGTGATT,0.15 kcal/mol
5,GTTAGCACGTGTTGTT,0.01 kcal/mol
6,CATAGCACGTGTTGTA,-0.1 kcal/mol
7,TGTTTCACGTGGACGA,0.25 kcal/mol
8,GTCTTCACGTGGTCTG,0.22 kcal/mol
9,GGCGTCACGTGGCGGT,-0.09 kcal/mol
10,TTCGGCACGTGGTATG,-0.04 kcal/mol
11,GGTTTCACGTGGAGCA,0.38 kcal/mol
12,AGTTGCACGTGCGATT,0.06 kcal/mol
13,CGTTGCACGTGTAATG,0.04 kcal/mol
14,TTTAGCACGTGCAAGG,-0.19 kcal/mol
15,GCGGTCACGTGTGGAA,0.24 kcal/mol
16,GCTGGCACGTGAGTAT,0.16 kcal/mol
17,TTGTGCACGTGGGACT,-0.14 kcal/mol
18,GTGAACACGTGATGGT,0.22 kcal/mol
19,AGTTACACGTGTTATC,0.16 kcal/mol
20,GGGATCACGTGTGTTG,0.31 kcal/mol
21,TAGATCACGTGTAAGG,0.2 kcal/mol
22,TAAGACACGTGGTGAG,-0.08 kcal/mol
23,AGTTACACGTGGTGAA,0.06 kcal/mol
24,GTGCTCACGTGTGCTG,0.13 kcal/mol
25,CTGTTCACGTGGTGTG,0.17 kcal/mol
26,TGTAGCACGTGAAGAT,0.29 kcal/mol

row,Sequence,relative binding free energy
1,GGACGCACGTGGGTAA,-0.1 kcal/mol
2,GATGTCACGTGACGTG,0.14 kcal/mol
3,GATGACACGTGTTTGT,0.15 kcal/mol
4,TTGCGCACGTGTATAG,0 kcal/mol
5,CAATGCACGTGGGTGG,-0.13 kcal/mol
6,ATAAGCACGTGGTTAT,-0.14 kcal/mol
7,GTATACACGTGAGTAG,0.15 kcal/mol
8,TTCGGCACGTGGAGGA,-0.26 kcal/mol
9,ATGAACACGTGGATTT,0.03 kcal/mol
10,TTATCCACGTGGGGTA,-0.19 kcal/mol
11,CGGGGCACGTGAATGG,0.06 kcal/mol
12,GCGTTCACGTGTGGAG,0.22 kcal/mol
13,GGTTCCACGTGGGTTC,0.01 kcal/mol
14,GTGGTCACGTGGCACG,-0.05 kcal/mol
15,CGGATCACGTGTAGTG,0.11 kcal/mol
16,TCGTTCACGTGAAAGG,0.24 kcal/mol
17,CGGTTCACGTGGAATT,0.47 kcal/mol
18,TGGTTCACGTGTGACG,0.33 kcal/mol
19,GATAGCACGTGTGGGG,0.03 kcal/mol
20,CGGTGCACGTGTCAGT,-0.12 kcal/mol
21,AGTGACACGTGGTGTT,-0.09 kcal/mol
22,GATGTCACGTGGGGGA,-0.02 kcal/mol
23,TCTTTCACGTGGTCGA,0.3 kcal/mol
24,TGTGGCACGTGGATAG,-0.03 kcal/mol
25,TGAATCACGTGCGGGG,0 kcal/mol
26,ATAGCCACGTGGGGCG,-0.2 kcal/mol

row,Sequence,relative binding free energy
1,TGGGGCACGTGTAAAG,-0.04 kcal/mol
2,TCTAGCACGTGAGTGT,0.17 kcal/mol
3,TAACGCACGTGTAGGT,-0.1 kcal/mol
4,GTGTACACGTGAATTG,0.36 kcal/mol
5,ATAGGCACGTGGTTGG,-0.15 kcal/mol
6,TTAGGCACGTGAGAGA,0.08 kcal/mol
7,GTAGGCACGTGTGAGT,0.04 kcal/mol
8,TGCAGCACGTGGTGCG,-0.24 kcal/mol
9,CTCGGCACGTGTTTTG,-0.13 kcal/mol
10,GGTGCCACGTGTGCGT,-0.16 kcal/mol
11,TAAGACACGTGGATTT,0.26 kcal/mol
12,TTTAACACGTGATGAG,0.26 kcal/mol
13,GATGTCACGTGGGGCT,0.11 kcal/mol
14,TGGAGCACGTGCGTGA,-0.1 kcal/mol
15,GGGTACACGTGAGATA,0.23 kcal/mol
16,TTTTTCACGTGTCTGG,0.35 kcal/mol
17,GGTGGCACGTGGTGTC,-0.06 kcal/mol
18,ATCTTCACGTGATTAG,0.45 kcal/mol
19,GTTGCCACGTGTGTTG,-0.06 kcal/mol
20,GAGGTCACGTGCGCGG,0 kcal/mol
21,AGTAGCACGTGGGATA,-0.24 kcal/mol
22,GAAAACACGTGGAGGG,0.1 kcal/mol
23,GATGGCACGTGGATAT,0.03 kcal/mol
24,ATAGTCACGTGTGGAT,0.08 kcal/mol
25,GGGTACACGTGAAGGA,0.45 kcal/mol
26,TGGTGCACGTGGGCCT,-0.1 kcal/mol

row,Sequence,relative binding free energy
1,GGTGTCACGTGCTTTG,0.1 kcal/mol
2,GTGATCACGTGAGTTA,0.25 kcal/mol
3,GTGATCACGTGGTCTG,0.06 kcal/mol
4,TCTTCCACGTGTTTTT,0.09 kcal/mol
5,ACGGTCACGTGGTATA,-0.04 kcal/mol
6,GTTCGCACGTGGTTTT,-0.03 kcal/mol
7,TACTTCACGTGTGAAG,0.34 kcal/mol
8,AAGATCACGTGGTATG,-0.03 kcal/mol
9,GATCGCACGTGTGTGG,0.12 kcal/mol
10,ATGCGCACGTGTCGGT,-0.21 kcal/mol
11,TTTTGCACGTGTACTT,0.09 kcal/mol
12,TAAATCACGTGGCGTG,0 kcal/mol
13,TTGTGCACGTGTAGGT,0.02 kcal/mol
14,TATCACACGTGTGGGG,0.12 kcal/mol
15,TTCTACACGTGTGATG,0.32 kcal/mol
16,CCTTTCACGTGTGAGG,0.33 kcal/mol
17,TTTTCCACGTGGAGAT,0.12 kcal/mol
18,GTTGGCACGTGAGTTA,0.13 kcal/mol
19,TGATGCACGTGTTTAC,0.03 kcal/mol
20,GGGTTCACGTGACGCG,0.2 kcal/mol
21,TTGAGCACGTGAATTA,0.34 kcal/mol
22,GAAGGCACGTGGCGTT,-0.17 kcal/mol
